This is one part of the list.
Tests used:
HSkMC = human skeletal muscle cells; assay: cytotoxicity call (relative viability < 0.9); details: 10 µM
HepG2 = assay: cytotoxicity call (relative viability < 0.9); details: 10 µM
S. aureus RN4220 = assay: growth inhibition call (relative growth <= 0.2); details: 50 µM

| Structure (SMILES) | cytotoxicity call (HSkMC) | cytotoxicity call (HepG2) | growth inhibition call (S. aureus RN4220) |
| --- | --- | --- | --- |
| C[C@H](CO)N1C[C@H](C)[C@H](CN(C)S(=O)(=O)c2ccc(Cl)cc2)OCCCC[C@H](C)Oc2ccc(NC(=O)c3ccncc3)cc2C1=O | inactive | inactive | inactive |
| COc1ccc(NC(=O)Nc2ccc3c(c2)C(=O)N([C@@H](C)CO)C[C@H](C)[C@@H](CN(C)C(=O)Nc2ccc4c(c2)OCO4)OCCCC[C@H](C)O3)cc1 | inactive | inactive | inactive |
| C[C@H](CO)N1C[C@H](C)[C@H](CN(C)S(=O)(=O)c2ccc(Cl)cc2)OCc2cn(nn2)CCCC1=O | inactive | inactive | inactive |
| CC(C)NC(=O)Nc1ccc2c(c1)CC(=O)N([C@@H](C)CO)C[C@H](C)[C@H](CN(C)Cc1ccc(-c3ccccc3)cc1)O2 | inactive | inactive | inactive |
| C[C@@H](Oc1ccccc1Cl)c1nc2ccc(Cl)cc2[nH]1 | inactive | inactive | active |
| C[C@H]1CN([C@@H](C)CO)S(=O)(=O)c2ccc(-c3ccncc3)cc2O[C@@H]1CN(C)C(=O)c1cccc(F)c1 | inactive | inactive | inactive |
| C[C@H]1CCCCO[C@H](CN(C)C(=O)c2ccccc2)[C@@H](C)CN([C@@H](C)CO)C(=O)c2cc(NC(=O)Nc3ccccc3)ccc2O1 | inactive | inactive | inactive |
| COc1ccc(NC(=O)Nc2ccc3c(c2)C(=O)N([C@H](C)CO)C[C@H](C)[C@@H](CN(C)C(=O)Nc2ccc4c(c2)OCO4)OCCCC[C@@H](C)O3)cc1 | inactive | inactive | inactive |
| C[C@H](CO)N1C[C@H](C)[C@H](CN(C)C(=O)CN2CCOCC2)Oc2cc(/C=C/c3ccccc3)ccc2S1(=O)=O | inactive | inactive | inactive |
